{"source": "ChEMBL document CHEMBL1201862", "about": "“PubChem BioAssay data set” (2004)", "note": "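Each compound was tested at five concentrations against cells in 96-well plates for 48 hours. GI50: concentration for 50% inhibition of growth.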 Active and inactive are the calls of the source. No stated cut-off is given here; in the data, active = GI50 up to about 1.1 µM and inactive = higher.", "data": [{"tested_on": "NCI-H322M", "assay": "NCI anticancer screen, dose series, 48 h", "values": [{"smiles": "CN(C)CC1CCC/C(=C\\c2ccc(OC(=O)/C=C/c3ccccc3)cc2)C1=O", "note": "(stereo unspecified)", "GI50": "inactive: 7.23 µM"}, {"smiles": "Cc1cccc2c1c(=O)c1c(O)cc(O)cc1n2C", "GI50": "inactive: > 100 µM"}, {"smiles": "O=C(Cc1ccccc1)NCCc1ccc(O)c(O)c1", "GI50": "inactive: > 100 µM"}, {"smiles": "CCOP(=O)(Nc1ccc2oc(=O)c3ccccc3c2c1)OCC", "GI50": "inactive: > 100 µM"}, {"smiles": "CCOC(=O)c1ccc(-c2cc(C)no2)[nH]1", "GI50": "inactive: > 100 µM"}, {"smiles": "CCCC/C=C1/CCC(CN(C)C)C1=O", "note": "(stereo unspecified)", "GI50": "inactive: 9.38 µM"}, {"smiles": "CN1CCN(CCCN2c3ccccc3Sc3ccc(C(F)(F)F)cc32)CC1", "GI50": "inactive: 12.8 µM"}, {"smiles": "COc1ccc(-c2[nH]c3ccccc3c2CCNS(=O)(=O)c2ccc(C)cc2)cc1", "GI50": "inactive: > 10 µM"}, {"smiles": "O=c1cc(-c2ccccc2)[nH]c2ccc(S)cc12", "GI50": "inactive: 69.3 µM"}, {"smiles": "C=CCNC1=C2C[C@@H](C)C[C@@H](OC)[C@@H](OC(=O)CCCN)[C@H](C)/C=C(\\C)[C@@H](OC(N)=O)[C@H](OC)/C=C\\C=C(/C)C(=O)NC(=CC1=O)C2=O", "GI50": "inactive: 11.5 µM"}, {"smiles": "Cc1nnc2n(c1=O)CCCN2C", "GI50": "inactive: > 100 µM"}, {"smiles": "CCOC(=O)CSc1nnc2cc(CN3CCCC3)c(-c3ccc(Cl)cc3)nn12", "GI50": "inactive: 25.2 µM"}, {"smiles": "CS(=O)(=O)OCCN1CCN(C(=O)c2cccc3c(Nc4ccc(S(=O)(=O)N=C(N)N)cc4)c4ccccc4nc23)CC1", "GI50": "inactive: > 100 µM"}, {"smiles": "Cc1ccccc1-n1c(=O)nc2n(-c3ccc(C(C)(C)C)cc3)c3ccccc3cc-2c1=O", "GI50": "inactive: 19.5 µM"}, {"smiles": "O=C1/C(=N\\n2c(S)nnc2-c2ccncc2)c2cc(Cl)ccc2N1CN1CCCCC1", "GI50": "inactive: 81.5 µM"}, {"smiles": "O=C(N/C(=C\\NC1=NCCS1)C(=O)N1CSC[C@@H]1C(=O)O)c1ccccc1", "GI50": "inactive: > 100 µM"}, {"smiles": "COc1cc(C(=O)OCCn2[nH]c(-c3ccc(Cl)cc3)nc2=S)cc(OC)c1OC", "GI50": "inactive: > 100 µM"}, {"smiles": "Cc1nc(Nc2ccc(F)cc2)c2sc(=S)n(-c3ccc(F)cc3)c2n1", "GI50": "inactive: 12.7 µM"}, {"smiles": "NCCc1nc(-c2nc(C(=O)O)cs2)cs1", "GI50": "inactive: > 100 µM"}, {"smiles": "Cc1cc(N(CCCl)CCCl)ccc1/C=N/NC(=O)Cc1cc(=O)oc2cc(O)ccc12", "GI50": "inactive: 17.1 µM"}, {"smiles": "COC(=O)C1CC(C=O)=C(SC)N1", "note": "(stereo unspecified)", "GI50": "inactive: > 50 µM"}, {"smiles": "O=C(N/C(=C\\c1cccc([N+](=O)[O-])c1)c1nc2ccccc2[nH]1)c1ccccc1", "GI50": "inactive: > 100 µM"}, {"smiles": "CCCCN1C(=O)c2c(Br)sc(Br)c2C1=O", "GI50": "inactive: 38.3 µM"}, {"smiles": "COc1cc(CCCC(O)COc2cccc3c2C2(O)CCCCCC32)cc(OC)c1", "note": "(stereo unspecified)", "GI50": "inactive: 19.5 µM"}, {"smiles": "O=c1c2cc(Br)cc(Br)c2nc(CCCl)n1CCO", "GI50": "inactive: 82.2 µM"}, {"smiles": "CC(C)Oc1ccc2c(c1)OCC1Cc3ccccc3OC21", "note": "(stereo unspecified)", "GI50": "inactive: > 100 µM"}, {"smiles": "CC(=O)N(C(C)=O)n1c(Cc2ccc(Cl)cc2)nn(C(C)=O)c1=O", "GI50": "inactive: > 100 µM"}, {"smiles": "CCOC(=O)C(Oc1ccc(OC)c2c1C(=O)CCC2)c1ccccc1", "note": "(stereo unspecified)", "GI50": "inactive: > 100 µM"}, {"smiles": "CCOC1C(Br)Cn2c(=O)c3cc4ccccc4cc3c(=O)n2C1C", "note": "(stereo unspecified)", "GI50": "inactive: > 100 µM"}, {"smiles": "COc1nc2ncc([C@@H](O)[C@H](O)CO)nc2c(=O)[nH]1", "GI50": "inactive: > 100 µM"}, {"smiles": "C=C(CCOC)CCC1CCCCC(=C)[C@H]1O", "note": "(stereo partly specified)", "GI50": "inactive: > 100 µM"}, {"smiles": "O=c1[nH]c2nc3ccccc3c(=O)n2/c1=C/c1ccc(O)cc1", "GI50": "inactive: 47.6 µM"}, {"smiles": "NC(=O)C#CC#CC#CCO", "GI50": "inactive: 10.9 µM"}, {"smiles": "CC(=O)OCCOCNC(=S)N/N=C/c1ccc(Br)s1", "GI50": "inactive: > 100 µM"}, {"smiles": "Cc1cccc(C[C@@]2(SCc3ccccc3)C(C)(C)[C@@H]3CC[C@@]2(C)C3)n1", "GI50": "inactive: 23.2 µM"}, {"smiles": "COc1ccc(OC)c2sc(N3C(=O)/C(=C/c4cccc(Oc5ccccc5)c4)N=C3c3ccccc3)nc12", "GI50": "inactive: > 100 µM"}, {"smiles": "CCOC(=O)NC(C(F)(F)F)(C(F)(F)F)P(=O)(OCC)OCC", "GI50": "inactive: > 100 µM"}, {"smiles": "C=CC(C)(O)CCC1C(=C)C(O)CC2C(C)(C)CCCC12C", "note": "(stereo unspecified)", "GI50": "inactive: 21.3 µM"}, {"smiles": "CN(C)c1ccc(/C=C2\\N=C(c3ccc([N+](=O)[O-])cc3)OC2=O)cc1", "GI50": "inactive: > 100 µM"}, {"smiles": "Cn1c(=O)oc2nc(-c3ccccc3)cc(C(F)(F)F)c21", "GI50": "inactive: > 100 µM"}, {"smiles": "COc1ccc2c(c1)CCc1c(C(C)=O)c3ccccc3n1C2", "GI50": "inactive: 58.3 µM"}, {"smiles": "CC1OC(OC2C(Oc3cc(O)c4c(c3)O[C@H](c3ccc(O)cc3)CC4=O)OC(CO)C(O)C2O)C(O)C(O)C1O", "note": "(stereo partly specified)", "GI50": "inactive: > 100 µM"}, {"smiles": "FC(F)(F)c1nc2ccc3[nH]c4c(-c5ccccc5)nccc4c3c2[nH]1", "GI50": "inactive: > 100 µM"}, {"smiles": "CCOC(=O)/C=C(\\C)c1ccc(OC)cc1", "GI50": "inactive: > 100 µM"}, {"smiles": "COc1cccc(OC)c1/C=C1\\OC(=O)c2cccc(OC)c21", "GI50": "inactive: 23.2 µM"}, {"smiles": "CC1(C)CCC2(C(=O)OC3OC(CO)C(O)C(O)C3O)CCC3(CO)C(=CCC4C5(C)CC(O)C(O)C(C)(C(=O)OC6OC(CO)C(O)C(O)C6O)C5CCC43C)C2C1", "note": "(stereo unspecified)", "GI50": "inactive: > 100 µM"}]}]}
